Assay results reported in PubChem BioAssay AID463173 (ICCB-Longwood Screening Facility, Harvard Medical School, 2010).
Among all 52,000 compounds or so, about 4,300 (8.3%) were called active. No stated cut-off is given here; in the data, active means survival mostly below about 52% (no sharp cut-off); inactive means mostly above about 56%. Some of the results follow.

Each compound was assayed on DeltatarO mutant (assay: growth inhibition of S. aureus wild type versus tarO mutant, primary screen, teichoic acid synthesis inhibitors, RN4220, OD600 (AID 463173)). Conditions: OD600, 18 h, stronger effect = lower value, screened at 18.75 µg/mL (by protocol).
With `O=C(Cn1c(SCc2ccccc2F)nc2ccncc21)Nc1ccccc1C(F)(F)F` the survival was inactive: 66%. In the case of `CCc1ccc(S(=O)(=O)c2nnn3c2nc(Nc2cc(OC)ccc2OC)c2sccc23)cc1`, the survival is reported as inactive: 88%. With `COc1ccccc1Nc1sc(C(=O)c2ccc(C)cc2C)c(N)c1S(=O)(=O)c1ccccc1` the survival was inactive: 67%. `O=C(NCC1CCCO1)C1CCCN1C(=O)Nc1ccc(Cl)cc1` (configuration not stated) was tested, and the survival was inactive: 84%. For `COc1ccc(CC(=O)Nc2sc3c(c2C(=O)Nc2ccccc2)CCCCC3)cc1`, the survival was inactive: 68%. In the case of `O=C(c1cnn(-c2ccc(F)cc2)c1-n1cccc1)N1CCN(c2ccc(F)cc2)CC1`, the survival is reported as inactive: 87%. For `CCNc1nc(NCc2ccc(F)cc2)c2cnn(C)c2n1`, the survival was inactive: 85%. `CC1=C(C(=O)Nc2cccc(Cl)c2C)C2(CCCCCC2)OC1=O` was tested, and the survival was active: 0%. `O=C(Nc1ccc(F)cc1)c1csc2c1CCCCC2` was tested, and the survival was inactive: 63%. `COc1cccc(N2CC(NC(=O)c3ccc(S(=O)(=O)N4CCOCC4)cc3)CC2=O)c1` (configuration not stated) was tested, and the survival was inactive: 117%. With `CC1CCCCN1C(=O)c1cc(-c2ccccc2)on1` (configuration not stated) the survival was inactive: 88%. In the case of `O=C(NCCc1ccccc1)c1nc(-c2ccc(Cl)cc2)n2c1CCCCC2`, the survival is reported as inactive: 90%. With `COc1ccc(CNc2nc3c(-c4ccccc4)nnn3c3ccccc23)cc1` the survival was inactive: 69%. In the case of `Cc1c(C(=O)Nc2nc(-c3ccc(F)cc3)ns2)oc2ccc(Cl)cc12`, the survival is reported as inactive: 72%. In the case of `Cc1ccc(CCNC(=O)CS(=O)Cc2nc(-c3ccccc3Cl)oc2C)cc1` (configuration not stated), the survival is reported as inactive: 64%. For `O=C(Cc1ccccc1)Nc1sc2c(c1C(=O)Nc1ccc(Br)cc1)CCC2`, the survival was inactive: 55%. For `Cc1ccc2oc(C(=O)Nc3cccc(Cl)c3)cc(=O)c2c1`, the survival was inactive: 92%. `Cc1cc(NC(=O)c2ccc(Cl)c(Cl)c2)ccc1NC(=O)c1ccco1` was tested, and the survival was inactive: 76%. With `COc1ccccc1C(=O)Nc1ccccc1OCc1cc(=O)n2ccccc2n1` the survival was inactive: 88%. In the case of `N#CC(C#N)=C(N)/C(C#N)=C/c1ccco1`, the survival is reported as inactive: 85%. `[O-]/[N+](Cc1ccccc1F)=N\O` was tested, and the survival was inactive: 97%. With `CCc1ccc2occ(CC(=O)Nc3ccccc3C(F)(F)F)c2c1` the survival was inactive: 115%. In the case of `CC(C)c1ccc(Nc2cc(C(=O)NC3CCCCC3)c3ccccc3n2)cc1`, the survival is reported as inactive: 90%. `CCc1cccc(-n2c(=O)c3cccnc3n2CC(=O)Nc2ccc(F)c(C)c2)c1` was tested, and the survival was inactive: 80%. For `COc1ccccc1NC(=O)CSc1nc(-c2ccc(C(C)(C)C)cc2)c(C#N)c(=O)[nH]1`, the survival was inactive: 52%. In the case of `Cc1nc2cc(C(=O)N3CCN(C)CC3)ccc2n1-c1ccccc1`, the survival is reported as inactive: 107%. In the case of `O=C(NCCn1ccc2ccccc21)c1ccc(Cl)cc1`, the survival is reported as inactive: 87%. For `Cc1cc(C)cc(C(=O)Nc2ccccc2N2CCOCC2)c1`, the survival was inactive: 80%. In the case of `CCc1ccccc1OCC(=O)Nc1ccc(S(=O)(=O)Nc2nc(C)cc(C)n2)cc1`, the survival is reported as inactive: 75%. For `CCOc1ccccc1-n1nnc(-c2nsc(NC(=O)c3ccc(C)cc3)n2)c1C`, the survival was inactive: 77%. In the case of `CCOc1ccc(C(=O)c2oc3ccccc3c2NC(=O)Cc2coc3ccc(CC)cc23)cc1`, the survival is reported as inactive: 72%. For `Cc1cccc(NC(=O)N2CCC3(CC2)Oc2ccccc2C(=O)N3Cc2ccccc2F)c1C`, the survival was inactive: 71%. `O=C(Cc1ccc(F)cc1)Nc1nnc2n1CCS2` was tested, and the survival was active: 52%. In the case of `COc1cccc(C(=O)Nc2c(C(=O)N3CCN(c4ccc(F)cc4)CC3)oc3ccccc23)c1`, the survival is reported as inactive: 83%. With `COc1cc2ccccc2cc1C(=O)Nc1ccc2oc(-c3ccc(F)cc3Cl)nc2c1` the survival was inactive: 59%. In the case of `CCc1ccc(CNC(=O)c2c(C)oc3ncnc(N4CCOCC4)c23)cc1`, the survival is reported as inactive: 128%. With `COc1cc(C(=O)n2nc(C)c(Sc3ccc(Cl)cc3)c2C)cc(OC)c1OC` the survival was inactive: 57%. In the case of `CC(=O)N1CCc2cc(S(=O)(=O)NC(C(=O)Nc3ccc(C)cc3C)C(C)C)ccc21` (configuration not stated), the survival is reported as inactive: 75%. With `COc1ccc(NC(=O)C2CCCN(S(=O)(=O)c3ccc(Br)s3)C2)cc1` (configuration not stated) the survival was inactive: 91%. With `CCOC(=O)c1c(-c2ccc(C)cc2)csc1NC(=O)c1cc(=O)c2ccc(C)cc2o1` the survival was inactive: 109%. For `CSc1cccc(Nc2cc(C(=O)NCCCN(C)c3ccccc3)c3ccccc3n2)c1`, the survival was inactive: 82%. With `COc1ccc(NC(=O)Cn2c(=O)n(Cc3nc(-c4ccccc4)no3)c(=O)c3ccccc32)cc1Cl` the survival was inactive: 102%. With `COc1ccc(/C=C/C(=O)Nc2nc3n(n2)C(c2ccc(F)cc2)C=C(c2ccccc2)N3)cc1` (configuration not stated) the survival was active: 42%. With `Cc1cc(C)c(NC(=O)Cn2cnc3c(oc4ccccc43)c2=O)c(C)c1` the survival was inactive: 69%. With `Cc1oc(-c2ccccc2Cl)nc1CSc1nc2ncccc2[nH]1` the survival was inactive: 80%. For `O=C(NCc1cccc(Cl)c1)c1ccc2nc(N3CCCCC3)sc2c1`, the survival was inactive: 79%. In the case of `COc1ccccc1N1CCN(c2ncnc3onc(-c4cccc(Cl)c4)c23)CC1`, the survival is reported as inactive: 74%. `CCOC(=O)c1c(C)n(-c2ccccc2)c2ccc(OC(=O)c3cccc(OC)c3OC)cc12` was tested, and the survival was inactive: 45%. With `COc1ccc(S(=O)(=O)Nc2c(C)nc3nc(C)[nH]n3c2=O)cc1` the survival was inactive: 74%. In the case of `CCc1cccc(N2C(=O)CSC23C(=O)Nc2ccccc23)c1` (configuration not stated), the survival is reported as inactive: 85%. For `CCN(CC)C(=O)c1ccc(Nc2nnc(-c3ccc(C)c(S(=O)(=O)NC)c3)c3ccccc23)cc1`, the survival was inactive: 75%. `CCOC(=O)c1c(NC(=O)c2cc(-c3cccc(OC)c3)on2)sc2c1CCCC2` was tested, and the survival was active: 46%. With `COc1ccc(CC(=O)NCC(c2cccs2)S(=O)(=O)c2ccc(C)cc2)cc1` (configuration not stated) the survival was inactive: 107%. With `COc1cccc(CNC(=O)Cc2c(C(=O)O)c(C)cn2C)c1` the survival was active: 8%. `CC(C)c1ccc(NC(=O)CN2C(=O)COc3ccc(S(=O)(=O)N4CCCCCC4)cc32)cc1` was tested, and the survival was inactive: 91%. For `OCCNc1ncnc2ccc(Br)cc12`, the survival was inactive: 67%. For `CCc1ccc(NC(=O)Cn2c(=O)n(Cc3ccco3)c(=O)c3oc4ccccc4c32)cc1`, the survival was inactive: 75%. In the case of `O=C(NCc1cccs1)c1ccc(CSc2nc3cccnc3n2Cc2ccccc2F)cc1`, the survival is reported as inactive: 102%. With `CCCCOc1ccccc1CC1C(=O)Nc2ccc(Br)cc21` (configuration not stated) the survival was active: 14%. In the case of `COc1ccc2c(c1)c(N1CCCC1=O)c(C(=O)Nc1ccccc1C(F)(F)F)n2C`, the survival is reported as inactive: 86%. For `COc1ccc(C2=C(C)C(=O)N(Cc3ccc(C(=O)NCc4cccc(C)c4)cc3)S2(=O)=O)cc1`, the survival was inactive: 86%. For `COc1ccc(-c2noc(N3CCC(C(=O)N4CCN(c5cccc(C)c5C)CC4)CC3)n2)cc1`, the survival was inactive: 83%. `COc1ccc(C2=NC(c3ccncc3)=Nc3ccc(OC)cc3N2)cc1` was tested, and the survival was inactive: 104%. In the case of `CCOc1ccc(NC(=O)CCNS(=O)(=O)c2cccc3nonc23)cc1`, the survival is reported as inactive: 70%. For `O=C(COc1ccc(F)cc1)Nc1ccc2nc(SCC(=O)N3CCOCC3)sc2c1`, the survival was inactive: 82%. In the case of `COc1ccc(-c2noc(COc3cc(C)ccc3C)n2)cc1OC`, the survival is reported as active: -5%. `O=C1[C@@H]2CSC(c3ccc(Cl)cc3)N2C(=O)N1c1ccccc1` (some centres not stated) was tested, and the survival was inactive: 71%. In the case of `CC(C)c1ccc(N2C(=O)CSC23C(=O)N(C)c2ccccc23)cc1` (configuration not stated), the survival is reported as inactive: 75%. For `CC(C)Oc1ccc(Cc2cnc(=S)[nH]c2N)cc1`, the survival was inactive: 93%. In the case of `CCOC(=O)C1CCCN(C(=O)c2nn(-c3ccc(C)cc3)c(=O)n(C)c2=O)C1` (configuration not stated), the survival is reported as inactive: 71%. In the case of `CCc1nnc2c(N3CCN(c4cc(Cl)ccc4C)CC3)nc3ccccc3n12`, the survival is reported as active: -5%. For `COc1ccc(CC(=O)N2CCc3cc(OC)c(OC)cc3C2COc2ccc3c(C)cc(=O)oc3c2)cc1` (configuration not stated), the survival was inactive: 135%. In the case of `CCOc1ccc(CNS(=O)(=O)c2ccc3c(c2)CCCN3C(C)=O)cc1OC`, the survival is reported as inactive: 67%. For `CCOC(=O)N1CCN(Cc2ccccn2)CC1`, the survival was inactive: 63%. With `Cc1nc2sccn2c(=O)c1S(=O)(=O)Nc1ccc(N2CCOCC2)c(Cl)c1` the survival was inactive: 97%. In the case of `Cc1ccc(NC(=O)Cn2ncn3c(cc4ccccc43)c2=O)cc1F`, the survival is reported as inactive: 84%. In the case of `CCC1=C(c2ccc(C)cc2)S(=O)(=O)N=C1N1CCC(C(=O)Nc2ccccc2F)CC1`, the survival is reported as inactive: 88%. With `COC(=O)c1c(SCC(=O)Nc2cc(OC)cc(OC)c2)[nH]c2ccc(C)cc2c1=O` the survival was inactive: 129%. `O=C1CCCN1C(=O)CN1CCCCC1` was tested, and the survival was inactive: 75%. In the case of `CCOc1ccc(CNCc2c(C(=O)O)c(C)n(Cc3cccc(OC)c3)c2C)cc1OC`, the survival is reported as inactive: 76%. `Cc1cc(CN2CCN(c3ccccc3F)CC2)cs1` was tested, and the survival was inactive: 80%. With `CCC1CCC(C(=O)NC(C(=O)Nc2cccc(OC)c2)C(C)C)CC1` (configuration not stated) the survival was inactive: 69%. In the case of `Cc1nc2nc(CNC(=O)OC(C)(C)C)nn2c(C)c1CCC(=O)NCc1ccc(F)cc1`, the survival is reported as inactive: 92%. `CC(NC(=O)c1ccccc1)c1n[nH]c(=S)n1C` (configuration not stated) was tested, and the survival was inactive: 74%. `O=C(CN1C(=O)COc2ccc(Cl)cc21)Nc1ccc(F)cc1` was tested, and the survival was inactive: 67%. For `CCN(C(=O)c1nn(-c2ccc(OC)c(Cl)c2)c(=O)c2c1c1ccccc1n2C)c1cccc(C(F)(F)F)c1`, the survival was inactive: 75%. For `CN1CC(=Nc2nonc2N)N(C)C1=O`, the survival was inactive: 90%. In the case of `COc1ccc(-c2nc3ccc(NS(=O)(=O)c4ccc(C)cc4)cc3o2)cc1`, the survival is reported as inactive: 45%. In the case of `O=C(OCc1cc(=O)n2nc(-c3cccs3)sc2n1)c1ccc(Cl)cc1`, the survival is reported as inactive: 73%. `CCOC(=O)c1c(-c2ccc(OC)cc2)oc2ccc(OCc3ccccc3C)cc12` was tested, and the survival was inactive: 51%. In the case of `Cc1ccc2cc(C#N)c(N3CCCN(S(=O)(=O)c4ccccc4)CC3)nc2c1`, the survival is reported as inactive: 69%. In the case of `CCOC(=O)c1c(C)[nH]c(C)c1S(=O)(=O)N1CCCC(C(=O)NCc2cccc(C)c2)C1` (configuration not stated), the survival is reported as inactive: 88%.
